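Assay format: 96-well plates, 48-hour exposure. GI50 marks 50% less growth.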 Calls of active or inactive are those of the source. Rule as the data show it: active = GI50 up to about 1.1 µM and inactive = higher. Peptide text beside a SMILES is read from it.
tested on: NCI-H322M; test: NCI-60 cell line screen, 48 h

Cc1ccc(NC(=O)CC(=O)N2N=C(N(C)c3ccccc3)CC2c2ccccc2)cc1 (stereo unspecified) was tested. Which GI50 did it give?
Its GI50 is inactive: > 100 µM.

How did the GI50 turn out when CC12CC(=O)NN=C1c1ccccc1C2 (stereo unspecified) was run?
The GI50 was inactive: > 100 µM.

How did the GI50 turn out when C/C(Cc1ccc2c(c1)OCO2)=N\N=c1\sc2ccccc2n1C was run?
Its GI50 is inactive: > 100 µM.

Which GI50 does the source give for O=C(/C=C1\N=C(c2ccccc2)N(c2ccc3c(c2)Sc2cc(N4C(=O)/C(=C/C(=O)/C=C/c5ccccc5)N=C4c4ccccc4)ccc2N3)C1=O)/C=C/c1ccccc1 here?
The GI50 was inactive: 21.1 µM.

How did the GI50 turn out when O=c1c2ccccc2oc2ccccc12.Oc1cccc2cccnc12 was run?
Its GI50 is inactive: 54.2 µM.

How did the GI50 turn out when COP(=O)(OC)C(NC=O)P(=O)(OC)OC was run?
The GI50 was inactive: > 100 µM.

With O=C1Nc2c(Cl)cc(Cl)cc2/C1=N/Nc1ccccc1[N+](=O)[O-] as the molecule, how does the GI50 read?
The GI50 was inactive: 99.1 µM.

O=C1CC(c2cccc([N+](=O)[O-])c2)C2(C(=O)NC(=O)NC2=O)C(c2cccc([N+](=O)[O-])c2)C1 (stereo unspecified) was tested. Which GI50 did it give?
Its GI50 is inactive: 15.9 µM.

How did the GI50 turn out when COc1cc2c(c(OC)c1OC)-c1ccc(SC)c(=O)cc1[C@@H](OC(C)=O)CC2 was run?
Its GI50 is active: < 0.01 µM.

How did the GI50 turn out when CN(C)c1ccc(/C=C/C=C(/C#N)c2ccccc2)cc1 was run?
The GI50 was inactive: 40.6 µM.

CCOC(=O)c1nc2cc(Cl)ccc2[nH]c1=O was tested. Which GI50 did it give?
The GI50 was inactive: > 100 µM.

For CCCCc1ccc(Nc2nc3ncnc-3c[nH]2)cc1, which GI50 is on record?
The GI50 was inactive: > 100 µM.

Which GI50 does the source give for CC(=O)CC(=O)ON(C)C(C)=O here?
The GI50 was inactive: > 100 µM.

With CN(Cc1cnc2nc(N)nc(N)c2n1)c1ccc(C(=O)NCCS(=O)(=O)O)cc1 as the molecule, how does the GI50 read?
Its GI50 is inactive: > 100 µM.

With COC(=O)C1(O)c2ccccc2N=C2C(=O)c3ccccc3N21 (stereo unspecified) [METHYLISATOID] as the molecule, how does the GI50 read?
Its GI50 is inactive: > 100 µM.

With COC(=O)CCc1ccc2c(c1)[C@H](C(=O)OC)[C@@H](c1ccc(O)cc1)O2 as the molecule, how does the GI50 read?
Its GI50 is inactive: > 100 µM.

How did the GI50 turn out when O=S(=O)(c1ccc(/N=N/O)nc1)c1ccc2ccccc2c1 was run?
Its GI50 is inactive: > 100 µM.

For CCCCCC(=O)OCC1(CO)C/C(=C\CC(C(C)C)C(C)C)C(=O)O1 (stereo unspecified), which GI50 is on record?
Its GI50 is inactive: > 100 µM.

With COc1ccccc1C(O)(c1ccccc1)C(O)(c1ccccc1)c1ccccc1OC (stereo unspecified) as the molecule, how does the GI50 read?
Its GI50 is inactive: > 100 µM.

CCOc1ccc(O)cc1[P+](c1ccccc1)(c1ccccc1)c1ccccc1 was tested. Which GI50 did it give?
The GI50 was inactive: 12.6 µM.

How did the GI50 turn out when Nc1nc(O)nc2sc3c(c12)CCCC3 was run?
Its GI50 is inactive: > 100 µM.

How did the GI50 turn out when Nc1ccc2c(c1)C(=O)c1c(F)cccc1-2 was run?
The GI50 was inactive: 56.6 µM.

For Cc1sc(C)c2c1C(=O)CC2N (stereo unspecified), which GI50 is on record?
Its GI50 is inactive: 70.8 µM.

With OCCCCCNc1nc(O)c2[nH]cnc2n1 as the molecule, how does the GI50 read?
The GI50 was inactive: > 100 µM.

With N=C(N)NCCC[C@H]1NC(=O)[C@@H](CCC(=O)O)NC(=O)[C@@H](CC(=O)O)NC(=O)[C@@H](CCC(=O)O)NC(=O)[C@H](Cc2c[nH]c3ccccc23)NC1=O (HELM PEPTIDE1{W.[dE].[dD].[dE].[dR]}$PEPTIDE1,PEPTIDE1,1:R1-5:R2$$$V2.0) as the molecule, how does the GI50 read?
The GI50 was inactive: > 7.5 µM.

Which GI50 does the source give for COC(=O)C1=C(OC(=O)c2ccccc2)C(C(=O)OC)[C@@]2(O)[C@@H](C(=O)OC)[C@H](C)C[C@@H]1[C@@H]2C(=O)OC (stereo partly specified) here?
The GI50 was inactive: 23.6 µM.

Which GI50 does the source give for O=C(CCc1ccccc1)ON1C(=S)C(c2ccccc2)(c2ccccc2)N=C1Sc1ccccc1 here?
The GI50 was inactive: 61.1 µM.

CC(C)(C)c1cc2c3c(c1)c(=O)c1cccc4c(O)c5cccc(c2=O)c5c-3c41 was tested. Which GI50 did it give?
The GI50 was inactive: 50 µM.

How did the GI50 turn out when NC(Cc1ccc(OCc2ccccc2)cc1)C(=O)NC(Cc1ccccc1)C(=O)Oc1c(Cl)c(Cl)c(Cl)c(Cl)c1Cl (stereo unspecified) was run?
The GI50 was inactive: 18.6 µM.

For O=[N+]([O-])c1ccc(CSc2nn(Cc3ccc([N+](=O)[O-])cc3)cc3ncnc2-3)cc1, which GI50 is on record?
The GI50 was inactive: 43.8 µM.

How did the GI50 turn out when CC(=O)NC1C(OCc2ccccc2)OC(CO)C(O)C1OC(C)C(=O)NC(C(=O)NC(CCC(=O)NCCCCNc1c2ccccc2nc2cccc([N+](=O)[O-])c12)C(N)=O)C(C)C (stereo unspecified) was run?
Its GI50 is inactive: 4.13 µM.

For CC(=O)N1N=C(c2c(O)ccc3ccccc23)CC1C(=O)c1ccco1 (stereo unspecified), which GI50 is on record?
Its GI50 is inactive: 37 µM.

CCOC(=O)Cn1nnc2ccc(Nc3nc4ccccc4nc3C(=O)OCC)cc21 was tested. Which GI50 did it give?
Its GI50 is inactive: > 100 µM.

For Nc1ncnc2c(C3OC(CO)C(O)C3O)scc12 (stereo unspecified), which GI50 is on record?
The GI50 was active: 0.0678 µM.

Which GI50 does the source give for OCC1OC(n2cnc3c(/C=C(/O)c4ccccc4)ncnc32)C(O)C1O (stereo unspecified) here?
Its GI50 is inactive: 6.38 µM.

c1cncc(O[Si](Oc2cccnc2)(Oc2cccnc2)Oc2cccnc2)c1 was tested. Which GI50 did it give?
The GI50 was inactive: > 100 µM.

How did the GI50 turn out when COc1ccc2nc3cc(Cl)ccc3c(Sc3ccc(NC(C)=O)cc3)c2c1 was run?
The GI50 was inactive: > 38.1 µM.

For COC(=O)CCC(=O)CC(=O)C(=O)Nc1ccc(F)cc1, which GI50 is on record?
Its GI50 is inactive: > 100 µM.

Which GI50 does the source give for Cc1cc(N(CCCl)CCCl)ccc1/C=N/NC(=O)Cc1cc(=O)oc2cc(O)ccc12 here?
Its GI50 is inactive: 17.1 µM.

Which GI50 does the source give for NS(=O)(=O)c1ccc(NC(=S)NC=C2C(=O)c3ccccc3C2=O)cc1 here?
The GI50 was inactive: > 100 µM.

Which GI50 does the source give for c1c[nH]c(CN2CCN(Cc3ncc[nH]3)CC2)n1 here?
Its GI50 is inactive: > 100 µM.

Nc1c(-c2nc3ccccc3[nH]2)sc(=S)n1-c1ccccc1 was tested. Which GI50 did it give?
Its GI50 is inactive: > 100 µM.

How did the GI50 turn out when Cc1ccc(/N=N/N(C)C(C)C(O)Cc2ccccc2)cc1 (stereo unspecified) was run?
The GI50 was inactive: 52.8 µM.

For O=C1C(Cl)=C(Cl)C(=O)N1c1ccc(Cl)c(Cl)c1Cl, which GI50 is on record?
Its GI50 is inactive: > 100 µM.

How did the GI50 turn out when CCOC(=O)N/N=C(/OCC)c1ccccc1 was run?
The GI50 was inactive: > 100 µM.

Which GI50 does the source give for CO[C@@]12C[C@@H](C)C3=CCC(C)=C3CC1=C(C)C(=O)O2 here?
Its GI50 is inactive: > 100 µM.

— ChEMBL document CHEMBL1201862, “PubChem BioAssay data set” (2004)
